# The list shows a part of the results. Values were computed here from the reads of four pooled replicates and scatter widely.
# Molecular target: T1, Pho4 (S. cerevisiae) (UniProt P07270)
# T1 sequence: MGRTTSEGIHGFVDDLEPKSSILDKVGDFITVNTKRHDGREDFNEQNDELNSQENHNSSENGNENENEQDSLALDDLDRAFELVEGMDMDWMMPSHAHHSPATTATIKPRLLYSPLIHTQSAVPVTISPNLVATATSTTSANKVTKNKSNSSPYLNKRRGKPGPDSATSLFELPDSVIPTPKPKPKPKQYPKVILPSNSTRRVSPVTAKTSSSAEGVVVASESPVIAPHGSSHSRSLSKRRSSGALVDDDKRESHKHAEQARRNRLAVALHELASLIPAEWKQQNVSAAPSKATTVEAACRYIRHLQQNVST
# Experiment: relative binding free energy (BET-seq); higher = weaker binding
# Details: reference: library average
row,Sequence,relative binding free energy [kcal/mol]
1,CTGTGCACGTGTCTGG,0.07
2,TTTAGCACGTGGGGTA,-0.2
3,TCAAGCACGTGAGGGT,0.24
4,TTTTTCACGTGGAAAA,0.27
5,TGGGGCACGTGGAATC,0.05
6,GGGCACACGTGGGTGG,0.02
7,AAGCTCACGTGGTTTT,0.26
8,ACGAGCACGTGGGCGG,-0.24
9,AGGTGCACGTGTGTAC,0.03
10,TGGAGCACGTGATAGA,0.15
11,GTAAGCACGTGTGAGG,-0.04
12,TGTGGCACGTGATAGC,-0.15
13,TTGTTCACGTGGACCG,0.24
14,AATTCCACGTGAGTGG,0.28
15,CTTAGCACGTGGAGTT,-0.02
16,CGGCGCACGTGTGGGT,-0.09
17,AATGGCACGTGAGTGC,0.18
18,TATAGCACGTGTGAAG,0.1
19,GTTATCACGTGGTAGT,0.23
20,GGATGCACGTGGTGCC,-0.07
21,ATAAACACGTGGTGTG,-0.21
22,GGGTACACGTGGTTAT,-0.04
23,TGTTGCACGTGAGGGC,0.14

row,Sequence,relative binding free energy [kcal/mol]
1,TGGGTCACGTGGCTAT,0.07
2,GGGTGCACGTGACGAG,0.07
3,TAGGGCACGTGATTGT,-0.04
4,ATGACCACGTGGTTTA,-0.01
5,AAGGTCACGTGGAAGG,0.21
6,AGATGCACGTGCAGGT,-0.19
7,TTCGGCACGTGGAAGT,0.06
8,TGGGTCACGTGACTTG,0.28
9,GGGCACACGTGGGGTA,-0.1
10,AGTAACACGTGGATAT,0.12
11,AGGGTCACGTGTTGAC,0.13
12,GTATGCACGTGATATG,0.06
13,CGAGTCACGTGGGTTG,0
14,GTGTGCACGTGAGATG,0.16
15,TGCGGCACGTGCATGG,-0.29
16,GGGTGCACGTGTATGG,0.03
17,TATCGCACGTGCGTGG,-0.13
18,ATGGTCACGTGCATTT,0.1
19,TATTGCACGTGTATTT,0.03
20,CATGACACGTGAGTGT,0.19
21,AGGGACACGTGGTATT,0.09
22,TTATTCACGTGGTGCT,0.16
23,GGTGACACGTGGCAGG,-0.25

row,Sequence,relative binding free energy [kcal/mol]
1,TGTGGCACGTGCTTTT,-0.07
2,AGAAACACGTGACGGG,0.3
3,CAGTTCACGTGGTTTG,0.12
4,CAGGGCACGTGGTGAT,-0.2
5,AGATTCACGTGTTGTA,0.18
6,GATCGCACGTGGGGCG,-0.05
7,GGTTACACGTGAGACG,0.29
8,TTGCACACGTGGGGCT,-0.05
9,TTAGGCACGTGGCGTC,-0.24
10,TTTCACACGTGCGTAT,0.17
11,TAGGGCACGTGCGAAT,0
12,GAGTACACGTGGGTAT,0.09
13,TGGGACACGTGGAGAC,0.1
14,CGGGACACGTGGAGGT,0
15,TGGTGCACGTGGGAAT,0
16,TGTATCACGTGGGTTG,-0.07
17,TTTAACACGTGACTTG,0.06
18,GGAGTCACGTGGAGTC,0.3
19,CTAAGCACGTGGAGGG,-0.21
20,TGAGTCACGTGGGACG,0.14
21,GAAAACACGTGTGGGG,-0.03
22,TCGGGCACGTGTTTGT,-0.05
23,TGGAACACGTGTCTTG,0

row,Sequence,relative binding free energy [kcal/mol]
1,GAAGGCACGTGAGAGG,0.22
2,GTCATCACGTGGTGGA,0.23
3,TGAGGCACGTGTCTTT,-0.03
4,TTGGTCACGTGGTCCT,0.1
5,AAGTCCACGTGTGTGG,0.01
6,TGTATCACGTGAGCTG,0.41
7,GTTTGCACGTGTGACG,0.06
8,TTGGACACGTGGTTGC,0.02
9,GTGTTCACGTGTAATC,0.23
10,TGTATCACGTGTCGTT,0.25
11,TTAGTCACGTGTTCTA,0.03
12,TAGTGCACGTGTTGGA,0.06
13,AGTCCCACGTGAGGGG,0.19
14,GGATGCACGTGAGGGG,0.31
15,GTTAACACGTGGGATT,0.01
16,CACTTCACGTGGGGGT,0.12
17,AGTCTCACGTGAGGCT,0.31
18,TCTGTCACGTGGAGTG,0.01
19,ATGGTCACGTGTCTTG,0.08
20,CTCGTCACGTGAGGTT,0.14
21,GTCGGCACGTGTGAAG,-0.02
22,TGTTTCACGTGATAGA,0.32
23,GTTATCACGTGTCCGT,0.24

row,Sequence,relative binding free energy [kcal/mol]
1,TTAGGCACGTGGTCGT,-0.19
2,TTTGCCACGTGGGTTA,-0.22
3,GGCGGCACGTGTTTAT,0.06
4,GAGGGCACGTGAGTGC,0.15
5,CAAAGCACGTGTTGGG,-0.09
6,CTGGTCACGTGGTGGC,0.03
7,ATTAACACGTGTTGTG,0.05
8,TTCTGCACGTGGGTTC,-0.15
9,ATGGCCACGTGATGTG,0.05
10,CAGATCACGTGGAGGG,0.07
11,ATAATCACGTGATTTG,0.23
12,AACGACACGTGGGTGG,-0.14
13,TTTGACACGTGAGGGA,0.17
14,CTGGACACGTGTTTTT,0.26
15,CTTGTCACGTGTGGAC,0.2
16,ATGGTCACGTGTCATT,0.09
17,GGTGCCACGTGTTTAA,0.07
18,GTTGACACGTGTGTTC,0.06
19,TGGAACACGTGATAGG,0.12
20,GGGTACACGTGCGAGG,0.08
21,TGAGACACGTGAGATG,0.17
22,GAGTTCACGTGGTCGT,0.32
23,TAAGTCACGTGAAGGG,0.4

# From the BET-seq Pho4 binding data (Le et al. 2018)
